# Assay results published in publication PMC4336329 (PLoS ONE, 2015).
# Out of some 310,000 compounds screened, about 2,200 (0.71%) showed an effect of 50% or more. Effects have a minus sign here. The list shows a part of the results.
# Target: human ether-à-go-go-related gene (hERG) potassium channel (human, UniProt Q12809)
# Experiment: primary screen, population patch clamp on CHO cells stably expressing hERG
# human ether-à-go-go-related gene (hERG) potassium channel, sequence (Q12809 whole entry, looked up): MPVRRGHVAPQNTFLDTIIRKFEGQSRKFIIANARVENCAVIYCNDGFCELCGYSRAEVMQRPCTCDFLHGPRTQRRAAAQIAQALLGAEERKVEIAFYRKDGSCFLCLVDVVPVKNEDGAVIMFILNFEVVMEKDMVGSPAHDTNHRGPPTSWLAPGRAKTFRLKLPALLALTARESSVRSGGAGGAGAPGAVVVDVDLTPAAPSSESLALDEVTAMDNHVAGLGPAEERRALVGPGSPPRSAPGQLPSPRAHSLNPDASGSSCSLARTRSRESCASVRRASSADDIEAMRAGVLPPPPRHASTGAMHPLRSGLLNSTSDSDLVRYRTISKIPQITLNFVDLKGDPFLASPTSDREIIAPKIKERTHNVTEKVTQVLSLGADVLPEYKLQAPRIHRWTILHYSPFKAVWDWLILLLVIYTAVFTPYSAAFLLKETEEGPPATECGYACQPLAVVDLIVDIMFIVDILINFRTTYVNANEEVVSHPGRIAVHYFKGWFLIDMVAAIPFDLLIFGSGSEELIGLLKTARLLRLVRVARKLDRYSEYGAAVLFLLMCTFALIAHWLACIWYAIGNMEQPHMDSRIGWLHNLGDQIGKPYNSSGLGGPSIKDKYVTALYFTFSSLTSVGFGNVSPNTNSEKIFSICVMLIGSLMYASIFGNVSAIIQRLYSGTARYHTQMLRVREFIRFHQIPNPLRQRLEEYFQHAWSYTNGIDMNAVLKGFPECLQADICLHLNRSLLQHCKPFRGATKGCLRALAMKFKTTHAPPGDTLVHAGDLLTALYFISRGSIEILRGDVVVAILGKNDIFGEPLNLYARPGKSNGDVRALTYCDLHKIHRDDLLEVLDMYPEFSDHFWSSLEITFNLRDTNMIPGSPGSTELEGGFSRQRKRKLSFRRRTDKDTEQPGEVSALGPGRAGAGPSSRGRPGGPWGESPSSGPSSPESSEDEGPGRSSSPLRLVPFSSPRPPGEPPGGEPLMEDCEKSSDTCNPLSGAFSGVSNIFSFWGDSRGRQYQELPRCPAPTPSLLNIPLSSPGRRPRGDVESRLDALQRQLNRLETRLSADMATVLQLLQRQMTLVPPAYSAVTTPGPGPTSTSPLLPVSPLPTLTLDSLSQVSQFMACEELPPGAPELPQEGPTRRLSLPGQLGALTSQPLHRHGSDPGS
row,SMILES,"hERG current change (%, negative = inhibition) at 1uM"
1,Cc1ccc(/C=N/N=C2/NC(=O)C(CC(=O)Nc3ccccc3)S2)o1 (stereo not shown),0.745%
2,O=C(CCc1nc2ccccc2[nH]1)NCc1ccc2c(c1)OCO2,-8.38%
3,CN(C)N=C1c2cc(S(=O)(=O)N(C)C)ccc2-c2ccc(S(=O)(=O)N(C)C)cc21,11.9%
4,CC(=O)c1ccc(OCc2cc(C(=O)N3CC[C@@H]4CCCC[C@H]4C3)no2)cc1,1.89%
5,COc1ccccc1OCCn1c(=S)[nH]c2ccccc21,2.43%
6,COC(=O)c1ccccc1NC(=S)NC(NC(=O)c1ccco1)C(Cl)(Cl)Cl (stereo not shown),-5.33%
7,COCC(C)NCc1cccc(OC)c1OC.O=C(O)C(=O)O (stereo not shown),13.5%
8,COCc1cc(=O)n2c([nH]c3ccccc32)c1C#N,-6.28%
9,CCC(=O)NC1=C(NC(C)c2ccccc2)C(=O)c2ccccc2C1=O (stereo not shown),13.8%
10,CCNc1nc(OC)nc(SCC(=O)Nc2ccccc2)n1,15.6%
11,COc1ccc(C(OCC2CO2)c2ccc(OC)cc2)cc1 (stereo not shown),6.96%
12,Cc1cc(C)c(N(CC(=O)NCc2ccccc2)C(=O)c2csnn2)c(C)c1,7.58%
13,O=C(CC1NCCc2ccccc21)Nc1ccc(Oc2ccccc2)cc1 (stereo not shown),9.78%
14,CCC1CCCCN1CCCNC(=O)CCCNC(=O)Cn1cnc2sc3c(c2c1=O)CCCC3 (stereo not shown),7.49%
15,COc1ccc(CCN2CC(C(=O)N(C)Cc3ccc4nsnc4c3)CCC2=O)cc1 (stereo not shown),-15.9%
16,O=C1CCN(CCc2ccccc2)CCN1[C@H](COc1ccccc1)Cc1ccccc1,-60.4%
17,CCC(=O)NC(c1ccccc1Cl)c1c(O)ccc2ccccc12 (stereo not shown),-0.883%
18,O=C(Nc1cccc(C(F)(F)F)c1)Oc1ccccc1N1CCOCC1,17.4%
19,COc1ccccc1N1CCN(C(=O)COc2cccc3ccccc23)CC1,12.1%
20,CC(C)C(=O)Nc1c(-c2cccc(Cl)c2)c(=O)c2ccccc2n1C,23.7%
21,COc1ccc2c(c1)OC[C@H]1[C@H]2N2C(=O)c3cc(Cl)ccc3NC(=O)[C@@]2(C)[C@H]1c1ccccc1,-1.92%
22,CC(=O)n1cc(N(C(=O)CCl)c2ccc([N+](=O)[O-])cc2)c2ccccc21,-0.778%
23,COc1ccc(/C=N/NC(=O)c2ccoc2C)cc1O,6.72%

row,SMILES,"hERG current change (%, negative = inhibition) at 1uM"
1,Cc1[nH]c2ccccc2c1/C=N/Nc1cccc(C(=O)O)c1,5.56%
2,c1ccc(-c2n[nH]c(-c3ccccc3)c2-c2nc3ccccc3[nH]2)cc1,7.06%
3,Cc1cc(/C=N\NC(=O)CC(=O)NC2CCCCC2)c(C)n1-c1ccc(Cl)cc1,1.8%
4,Cc1cc(C)n(CC(=O)NNC(=O)CCNC(=O)c2ccccc2Cl)n1,8.63%
5,CC1CCC(NC(=O)CCNC(=O)c2ccc(Br)cc2)CC1 (stereo not shown),15.8%
6,O=C(C1CCCCC1)N(CCN1CCCC1)c1nc2ccccc2s1,10.7%
7,Cc1c(Cl)cccc1NC(=O)C(=O)NNC(=O)c1ccccc1F,6.21%
8,COc1ccc(C(=O)NC(CCSC)C(=O)NC2CC2)cc1 (stereo not shown),12.3%
9,Nc1nc(SCc2ccc(F)cc2)ns1,3.6%
10,Cl.O=C(NCCCN1CCOCC1)C(=O)c1c[nH]c2ccccc12,5.13%
11,Nc1ccc(C(=O)NCC(=O)O)cc1,14.5%
12,COC(=O)c1ccc(CS(=O)(=O)c2ccc(C)cc2)o1,19.4%
13,CC1=C(C(=O)Nc2ccccc2)C(c2cc(CN3CCOCC3)cs2)C2=C(CCCC2=O)N1 (stereo not shown),15.6%
14,C=CCN(CC=C)C(=O)C(=O)c1ccn(-c2c(C)csc2C(=O)OC)c1,-59.3%
15,Nc1[nH]nc2nc(N3CCCC3)nc(-c3ccccc3)c12,0.157%
16,O=C(O)[C@H](Cc1ccccc1)NC(=O)C(c1ccccc1)(c1ccccc1)c1ccccc1,19.4%
17,Cn1c(=O)[nH]c(=O)c2c1nc(NC1CCCCC1)n2CCO,-5.54%
18,CCCCN(C)C(=O)c1nc2ccccn2c1CN1CCSCC1,12.1%
19,Cc1ccc(C(=O)NCC(=O)OC(C)C(=O)Nc2ccc(N(C)C)cc2)s1 (stereo not shown),11.3%
20,Cc1c(O)nc2sc3ccccc3n2c1=O,11.7%
21,CCN(Cc1ccccc1)C(=O)Cn1c(C(C)O)nc2ccccc21 (stereo not shown),-2.61%
22,O=C(c1ccc(S(=O)(=O)N2CCCCCC2)cc1)N1CCN(c2ccccn2)CC1,-3.53%
23,Cc1ccc(C(=O)C[n+]2cccc(C(N)=O)c2)cc1.[Br-],17.8%

row,SMILES,"hERG current change (%, negative = inhibition) at 1uM"
1,Cc1cccc(C(=O)NC(=S)N(C)C2CCCCC2)c1,0.369%
2,CC(=O)c1ccc(OCc2cc(=O)n3ccsc3n2)cc1,9.72%
3,Clc1ccc(C2=NNC(=NCc3ccc4c(c3)OCO4)SC2)cc1,5.08%
4,COc1ccc(CCNC(=O)CCNS(=O)(=O)c2cc(Br)cnc2N)cc1OC,13.7%
5,C=CCn1c(SCCC)nc(O)cc1=O,2.13%
6,Cc1ccc(CC(=O)Nc2nccs2)cc1,10.8%
7,O=C(NC1CCCC1)c1cccc(S(=O)(=O)N2CCCC2)c1,15.1%
8,Cc1ccc(NC(=O)CCC(=O)NNC(=S)Nc2ccc(F)cc2)c(C)c1,12.8%
9,CN1CCN(c2nc3c(c(=O)[nH]c(=O)n3C)n2Cc2ccccc2F)CC1,13.9%
10,CC(=O)Nc1ccc(NC(=O)CSc2ccc(-c3sc(C)nc3C)nn2)cc1,4.29%
11,CC(Oc1ccc(F)cc1)C(=O)Nc1cc(Cl)ccc1-n1cncn1 (stereo not shown),-3.12%
12,Cc1cccc(NC(=S)NCc2cccs2)c1,10.7%
13,Nc1ccc(-c2nc3ccc([N+](=O)[O-])cc3[nH]2)cc1,12.4%
14,O=C(N/N=C/c1ccc2c(c1)OCO2)c1ccc(NC(=O)c2ccccc2Cl)cc1,15.3%
15,CSc1ccccc1NC(=O)c1cc(S(=O)(=O)N(C)C)ccc1N1CCCC1,-20.8%
16,O=C1CSC(c2ccc(F)c(F)c2)N1c1ccccc1F (stereo not shown),10.5%
17,CCOc1ccc(NCC(=O)Nc2ccc(C)cc2C)cc1,9.27%
18,CN(CC(=O)Nc1ccc(Cl)cc1)C(=O)Cn1[nH]c(=O)c2ccccc2c1=O,9.93%
19,O=C(O)C(=O)O.c1ccc(OCCCN2CCCC2)cc1,5.39%
20,Cc1ccc(-c2n[nH]c3c2C(c2ccccc2)N(c2ccc(C(=O)O)cc2)C3=O)cc1 (stereo not shown),9.59%
21,CCC(=O)Nc1ccc(NC(=O)C23CC4CC(CC(C4)C2)C3)cn1,10.1%
22,O=C(OCC(=O)N1CCN(c2ccccc2)CC1)c1ccc2ccccc2n1,-2.8%
23,O=C(O)/C=C/C(=O)N1CCN(C(=O)/C=C/C(=O)O)CC1,-0.705%

row,SMILES,"hERG current change (%, negative = inhibition) at 1uM"
1,CCOC(=O)c1c(NC(=O)Nc2ccc(F)cc2)sc2c1CCN(C)C2,12.5%
2,COc1ccccc1OCCCCN1CCC(C)CC1,4.82%
3,Cc1cc(C)c(OCCCn2ccnc2)c(C)c1,14.4%
4,CCN(CC)S(=O)(=O)c1ccc2c(c1)CC(C(=O)N1CCCC1)N2C(C)=O (stereo not shown),10.8%
5,COc1ccc(N=Nc2ccc(O)c(P(=O)(c3ccccc3)c3ccccc3)c2)cc1,14.2%
6,O=C(NCCC1=CCCCC1)C1CCN(Cc2cnn(-c3ccccc3)c2-n2cccc2)CC1,-14.8%
7,CCC1CCC(NC2CCCCNC2=O)CC1 (stereo not shown),7.46%
8,O=C(c1ccncc1)c1nccn1-c1ccccn1,11.9%
9,CCOC(=O)C1=C(C)Nc2ncnn2C1/C=C/c1ccccc1 (stereo not shown),3.32%
10,O=C1/C(=C/c2c[nH]c3ccccc23)CCC/C1=C\c1c[nH]c2ccccc12,-4.17%
11,COc1ccc(Cl)c(S(=O)(=O)N2CCCC2)c1,3%
12,O=C(C1CCCO1)N1CCN(S(=O)(=O)c2ccc(F)cc2)CC1 (stereo not shown),20.7%
13,CCCCOc1ccccc1C(=O)NCC(=O)O.[Li+],2.05%
14,COc1ccc(NC(=O)CC(C)CC(=O)NCc2ccccc2)c(OC)c1 (stereo not shown),7.6%
15,CCOc1ccc(S(=O)(=O)N2CCC(C(=O)N3CCN(c4ccccc4F)CC3)CC2)cc1C,-1.32%
16,Cc1ccc(NC2=C(C(=O)c3ccccc3)N(C)S(=O)(=O)c3ccccc32)cc1,4.64%
17,O=C(O)c1cccnc1Sc1ccc(Cl)cc1,2.23%
18,CCCCNS(=O)(=O)c1ccc2nc(-c3cccnc3)cc(C(=O)NCCOC)c2c1,6.27%
19,CCCOC(=O)Nc1ccccc1C(N)=O,-0.606%
20,COc1cccc(C(C(=O)NC2CCCCC2)N(C(=O)c2cccs2)c2ccc3c(c2)OCO3)c1 (stereo not shown),6.25%
21,CC1(C)OC(=O)C(=CNC(=O)c2c(F)cccc2F)C(=O)O1,11.8%
22,COc1cccc(N(C(=O)c2ccco2)C(C(=O)NC2CCCC2)c2ccc(N3CCOCC3)cc2)c1 (stereo not shown),6.24%
